# The campaign covered roughly 45,000 compounds. About 200 (0.44%) were called active. Not shown: some 7% with an inconclusive outcome. Calls come from the whole dose curve; as a rule, active = well fitted activation curve with a large enough effect; inconclusive = small, poorly fitted or top-dose-only effect; inactive = no such curve, though single readings can be large or run the other way. Some of the results follow.
# Test: qHTS of TDP-43 Inhibitors: NCGC Sytravon Library Screen; note: nearly all actives have a fitted effect of over 55% in size; for growth rescue (activation): 0% is about no effect
# Settings: yeast TDP-43 toxicity rescue, BacTiter-Glo growth, 24 h; series mostly up to 46.1 µM; growth rescue (activation): at the top concentration
# Summary of the method: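 TDP-43-expressing yeast, pregrown in raffinose, seeded at OD600 0.02 in galactose medium with compound for 24 hr at 30 deg C. Growth read by BacTiter-Glo luminescence, so rescue of toxicity appears as activation.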
# Potency is the fitted concentration of half-maximal effect.
SMILES,growth rescue (activation),Potency
CN(CC(=O)NCc1ccc(F)cc1)Cc1ccc(Br)cc1,inactive: -6.93%,
CNS(=O)(=O)c1ccc2c(c1)NC(=O)C1CCCN21 (stereo not given),inactive: -22.8%,
O=C(COC(=O)c1ccccc1Br)NCC1CCCCC1,inactive: -5.98%,
COc1ccc(C(=O)/C=C/Nc2ccc(S(=O)(=O)Nc3cccc(C(C)=O)c3)cc2)cc1,inactive: 13.2%,
CC(C)(C)CNC(=O)C1(C)CCN1C(=O)Cc1ccc(C(C)(C)C)cc1 (stereo not given),inactive: -6.28%,
CCC(=O)N1CCc2cc(Br)cc(S(=O)(=O)NCCCN(CC)Cc3ccccc3)c21,inactive: -5.69%,
CC(C)Nc1nnc(SC(C)C(=O)NCc2ccc3c(c2)OCO3)s1 (stereo not given),inactive: -3.88%,
CN(C(=O)COC(=O)c1ccc(S(=O)(=O)N2CCOCC2)cc1)c1ccccc1,inactive: 5.87%,
Cc1ccccc1OCc1nnc(SCC(=O)Nc2ccc(N3CCOCC3)cc2)n1C,inactive: -5.1%,
O=C(c1cccs1)N1CCN(C(=O)c2cn(-c3ccccc3)nc2-c2ccccc2)CC1,inactive: 8.62%,
Cc1oc2c(cc(NS(=O)(=O)c3ccc(F)cc3)c3ccccc32)c1C(=O)O,inactive: -11.6%,
C=CCN1C(=O)c2ccccc2C1(O)Cc1ccccc1 (stereo not given),inactive: 6.25%,
CC(=O)c1c(C)oc2ccc(NS(=O)(=O)c3ccccc3)cc12,inactive: 11.9%,
O=C(Nc1ccc(F)cc1)C1CCCO1 (stereo not given),inactive: 7.18%,
Cc1cccc(OCc2nnc(SC(C)C(=O)O)n2Cc2ccccc2)c1 (stereo not given),inactive: 11%,
Cc1ccc(N(C(=O)Cc2cccs2)C(C(=O)NC2CCCCC2)c2ccccn2)cc1C (stereo not given),inactive: 5.67%,
Cc1ccc(NC(=O)CNc2ccccc2N2CCCC2=O)cc1S(=O)(=O)N1CCOCC1,inactive: 23%,
COc1ccc(C2/C(=C(/O)c3cnn(-c4ccccc4)c3C)C(=O)C(=O)N2CCN(C)C)cc1OC (stereo not given),inactive: 17.3%,
CN(Cc1ccccc1)c1ccc(N2C(=O)CCCC2=O)cc1[N+](=O)[O-],inactive: 5.18%,
Cc1cn(CCOc2ccc(Cl)cc2)c(=O)[nH]c1=O,inactive: -0.263%,
CC1(C(=O)NC2CCCCCC2)CCN1C(=O)C1(c2ccccc2)CC1 (stereo not given),inactive: 21.7%,
OCCCCNCc1cc(Br)ccc1OCc1ccccc1,inactive: -1.12%,
O=c1c(-c2ccccc2)nnc2sc(COc3ccc(Br)cc3)nn12,inactive: -20%,
CCOC(=O)/C(=C\c1ccc(OC(F)F)cc1)C1=Nn2c(nnc2-c2ccc(Cl)cc2)SC1,inactive: 9.47%,
CSCCNC(=O)C1(C)CCN1C(=O)CCc1ccccc1 (stereo not given),inactive: 8.36%,
CCOC(=O)c1c(CCl)nc2ccccc2c1-c1ccccc1,inactive: 8.92%,
NC(=O)NCc1ccccc1F,inactive: 5.15%,

SMILES,growth rescue (activation),Potency
COc1cccc(-n2c(=O)c3sccc3n(Cc3cc(=O)n4cc(Cl)ccc4n3)c2=O)c1,inactive: 8.55%,
O=C(CCN1C(=O)S/C(=C\c2ccccc2)C1=O)N1CCCCC1,inactive: 20.8%,
NC(=O)/C(=C/c1ccc2c(c1)OCO2)NC(=O)c1ccco1,inactive: -3.32%,
COc1ccc(NC(=O)CCOc2ccccc2F)cc1S(=O)(=O)N1CCCCC1,inactive: 13.1%,
Cc1nc2ccccc2n2c(-c3ccccc3)c3c(=O)n(C)c(=O)n(C)c3c12,inactive: 18.9%,
CCOC(=O)N/N=C\c1ccc(OC(=O)c2ccc3c(c2)OCO3)cc1,inactive: 22.8%,
CCC(OC(=O)CN1C(=O)c2ccccc2C1=O)C(=O)NC1CCCC1 (stereo not given),inactive: -4.83%,
CCOC(=O)c1[nH]c(C)c(/C(O)=C2\C(=O)C(=O)N(CCCN(C)C)C2c2cccnc2)c1C (stereo not given),inactive: -6.72%,
CC(NC(=O)c1cnc2ccccc2n1)c1ccccc1 (stereo not given),inactive: 35.2%,
Cc1nc(SCC(=O)NC2CCS(=O)(=O)C2)c2c3c(sc2n1)CCC3 (stereo not given),inactive: 4.14%,
CN(c1ccccc1)S(=O)(=O)c1nnc(NC(=O)C2CCCCC2)s1,inactive: 18.6%,
COc1ccccc1OCCSc1nc2ccc([N+](=O)[O-])cc2s1,inactive: 8.24%,
NS(=O)(=O)c1ccc(CCNC(=O)CSCc2ccccc2)cc1,inactive: 14.3%,
c1ccc(-c2nc3nc4ccccc4nc3n2CC2CCCO2)cc1 (stereo not given),inactive: 18.2%,
Cc1ccc(-c2nnn(CC(=O)NCCc3ccc4c(c3)OCO4)n2)cc1,inactive: 16.1%,
Cn1cnc(S(=O)(=O)N2CCCCC2c2cc(C(=O)Nc3cccc4c3CCCC4)no2)c1 (stereo not given),inactive: 2.54%,
COc1ccccc1NS(=O)(=O)c1cc(C(=O)NCCC(C)C)ccc1F,inactive: 3.72%,
N#C/C(=C\c1ccc(N2CCOCC2)o1)C(=O)NC1CCCCC1,inactive: 21.9%,
Cc1cc(C)c2oc(C(=O)Nc3ccc(S(=O)(=O)N4CCCC(C)C4)cc3)cc(=O)c2c1 (stereo not given),inactive: 8.94%,
CC(C)NC(=O)c1cccc2c(-c3ccc(F)c(F)c3)coc12,inactive: 28.2%,
CCN(CC)S(=O)(=O)c1ccc(Cl)c(NC(=O)COc2ccccc2[N+](=O)[O-])c1,inactive: 1.99%,
CC(=O)c1ccc(N2Cc3ccccc3C2)cc1,inactive: 0.808%,
CCc1ccc(OCC(=O)N(Cc2ccco2)Cc2ccccc2Cl)cc1,inactive: 5.15%,
Cc1ccc(S(=O)(=O)N2CCOCC2)cc1NC(=O)CSc1nnnn1C,inactive: 4.07%,
CCOC(=O)Cc1nnc(Nc2cc(C)ccc2C)c2ccccc12,inactive: -1.7%,
COc1cc(Cl)ccc1OCc1cc(C(=O)N(C)C2CC(C)(C)NC(C)(C)C2)no1,inactive: 3.9%,
COCC1CCN(C(=O)c2ccc(OC)c(OC3CCN(C(C)C)CC3)c2)CC1,inactive: -0.197%,

SMILES,growth rescue (activation),Potency
C=CCN=c1scc(-c2ccc(F)cc2)n1/N=C/c1ccccn1,,active: 11.2 µM
NC(=O)N/N=C(/CCCCCC/C(=N\NC(N)=O)c1ccccc1)c1ccccc1,inactive: 4.73%,
NC(=O)c1ccsc1NC(=O)COC(=O)/C=C/c1ccc([N+](=O)[O-])cc1,inactive: -1.64%,
CCOc1ccc(N=C(/C(C(=O)C(=O)N2CCOCC2)=C(\O)c2ccccc2)c2ccccc2)cc1,inactive: 17.2%,
CC1(C)C2CCC1(CS(=O)(=O)Nc1ccc(S(=O)(=O)N3CCCC3)cc1)C(=O)C2 (stereo not given),inactive: 7.56%,
COc1ccc(C(=O)N2CCCC(Nc3ccc(C)c(C)c3)C2)c(OC)n1 (stereo not given),inactive: 13.1%,
CCCS(=O)(=O)NC(=O)C1(C)CCN(C(=O)c2c(F)cccc2F)C1 (stereo not given),inactive: -5.03%,
COCCn1c(C)cc(C(=O)CSc2cc(C)c3ccc(OC)cc3n2)c1C,inactive: 22.8%,
Cc1cc(C(=O)N/N=C/C=C/c2ccccc2)c(C)o1,inactive: -2.62%,
COC(=O)c1ccc(NC(=O)c2c(C(=O)Nc3ccccc3)sc3nc(C)cc(=O)n23)cc1,inactive: -7.36%,
Cc1ccc([N+](=O)[O-])cc1NC(=O)CSc1nncn1-c1ccccn1,inactive: 8.27%,
CCOc1ccc(C(=O)NCC(=O)NCC2CCCCC2)cc1OCC,inactive: 6.64%,
Cc1cccn2c(=O)c3cc(C(=O)NC4CCCC4)c(=N)n(CCCN4CCOCC4)c3nc12,inactive: -5.69%,
O=c1oc2ccccc2nc1/C=C(O)/C=C/c1ccc(F)cc1,inactive: -33.9%,
COC(=O)c1sc2nc(C)nc(SCC(=O)N3CCC(C(=O)O)CC3)c2c1C,inactive: 0.532%,
Cc1c(NCc2cccnc2)cccc1C(=O)O,inactive: 2.73%,
COc1cccc(OC)c1C(=O)N1CCN(Cc2cccnc2)CC1,inactive: -8.5%,
Cc1cc(Br)ccc1NC(=O)CNC(=O)CSc1nccn1C,inactive: 8.83%,
COc1ccccc1N1CCN(C(=O)c2coc(=O)c(Br)c2)CC1,inactive: -2.33%,
COc1ccc(CN2CCCC(CO)(Cc3cccc(Cl)c3)C2)cc1OC (stereo not given),inactive: 1.52%,
CCOC(=O)c1ccc(S(=O)(=O)N2CCN(C(=O)CSc3nc4ccccc4o3)CC2)cc1,inactive: 8.92%,
CC(=O)Nc1ccc(C(=O)N2CCCCC2c2cc(C(=O)NCc3cccnc3)no2)cc1 (stereo not given),inactive: 12.5%,
NC(=O)c1cc(-c2csc(-c3cccnc3)n2)ccc1O,inactive: 14.7%,
COc1ccccc1N1CCN(C(=O)c2cc(=O)c3cc(C)cc(C)c3o2)CC1,inactive: 11.7%,
Cc1oc2cc(O)ccc2c(=O)c1-c1ccccc1,inactive: 18.5%,
CC(C)Cn1c(/C=C/c2ccccc2)nc2ccccc21,inactive: 10.3%,
Cc1cc(C)cc(NC(=S)N(Cc2cccc(Br)c2)CC2CCC(C(=O)O)CC2)c1 (stereo not given),inactive: 14.6%,

SMILES,growth rescue (activation),Potency
COc1ccc2oc(C(=O)c3ccccc3)c(NC(=O)CN3CCN(C)CC3)c2c1,inactive: 25.8%,
CC(C)C(NC(=O)C1CC(=O)N(Cc2ccccc2)C1)c1nc2ccccc2[nH]1 (stereo not given),inactive: -1.14%,
COc1ccccc1C(=O)OCCNC(=O)Cn1cnc2c1c(=O)n(C)c(=O)n2C,inactive: -19.6%,
C/C(CC(=O)NCc1ccc(Cl)cc1)=N\NC(=O)COc1ccc(C)cc1Br,inactive: -10.6%,
Cc1cccc(C(=O)NCC(c2ccc(F)cc2)N2CCOCC2)c1 (stereo not given),inactive: 27.7%,
COCCNC(=O)CN(c1ccc(F)cc1)S(=O)(=O)c1ccc2c(c1)OCCO2,inactive: 11.3%,
Cc1ccc(C)c(OCc2cc(C(=O)NC3CCOC(C)(C)C3)no2)c1 (stereo not given),inactive: 20%,
COc1cc(CNCCc2ccc(S(N)(=O)=O)cc2)ccc1OCC(=O)NC(C)(C)C,inactive: 9.63%,
CCN1CCN(C(=S)NCc2ccc(C)cc2)CC1,inactive: 9.44%,
Oc1ccc(/C=N/N=C/c2ccc(O)c(O)c2)cc1O,inactive: -0.268%,
CC(C)c1ccc(NC(=O)COC(=O)C2=COCCO2)cc1,inactive: 11.3%,
Cc1ccc(S(=O)(=O)N2CCC(C(=O)O)CC2)cc1,inactive: -10.2%,
CCOC(=O)c1c(NC(=O)COc2c(C)cc(Cl)cc2Cl)sc2c1CCCC2,inactive: -4.34%,
Cc1ccc(C(=O)Nc2ccc(Cl)cc2C(F)(F)F)c(Cl)c1,inactive: 13%,
O=C(CSc1ccccc1)NC1=NCCS1,inactive: 2.3%,
Cc1[nH]n(-c2ccccc2)c(=O)c1-c1ccccc1,inactive: 15.6%,
CCC(C)(C)NC(=O)C(c1cccn1C)N(C(=O)Cn1nnc2ccccc21)c1ccc(NC(C)=O)cc1 (stereo not given),inactive: 3.87%,
Cc1cc(C(F)(F)F)n2[nH]c(=O)c(N=Nc3ccccc3)c2n1,inactive: 26.4%,
O=C(COC(=O)COc1ccc(Cl)cc1)Nc1ccc(N2CCOCC2)cc1,inactive: -14.9%,
CCOC(=O)N1CCC(=NNC(=O)NC2CCCCC2)CC1,inactive: 1.61%,
CC1CN(C)C(C)C/C1=N\Oc1ccc([N+](=O)[O-])cc1 (stereo not given),inactive: -0.946%,
Cc1ccc2c(c1)C(=O)C(=O)N2CC1COc2ccccc2O1 (stereo not given),inactive: -28.5%,
O=C(Nc1nc(-c2ccccc2)cs1)c1cccc([N+](=O)[O-])c1C(=O)O,inactive: 13.5%,
COc1ccc(-n2cc(CNCCc3cscn3)c(-c3ccccc3Cl)n2)cc1,inactive: 0.59%,

# Source: PubChem BioAssay AID1347073 (National Center for Advancing Translational Sciences (NCATS), 2019)
